Patent publication US20230057622A1 (ZENSUN SHANGHAI SCIENCE AND TECHNOLOGY, published 2023)

Columns and labels:
receptor on MCF-7 cells [1] = experiment: cell-based or functional assay
receptor on MCF-7 cells [2] = experiment: cell-based or functional assay; remark: listed apart in the source

Binder	EC50 (receptor on MCF-7 cells [1])	EC50 (receptor on MCF-7 cells [2])
recombinant NRG fusion protein with an amino acid sequence of SEQ ID NO: 2 (Fc fusion) SHLVKCAEKEKTFCVNGGECFMVKDLSNPSRYLCKCPNEFTGDRCQNYVMASFYKAEELYQGGGGSGGGGSGGGGS[human IgG1 Fc skipped]	2.48 nM	
NRG-IgG4-Fc fusion polypeptide (Fc fusion) SHLVKCAEKEKTFCVNGGECFMVKDLSNPSRYLCKCPNEFTGDRCQNYVMASFYKAEELYQGGGGSGGGGSGGGGS[human IgG4 Fc with changes and a few adjoining residues skipped]		3.66 nM

Read-outs that look alike come from different tables or passages of the source.
